The values below come from publication PMC6212790.

This is one part of the list. At the low end of the ranking the order means little.

This assay deals with T1, GST-Rok-C97-191 (UniProt O34857).
T1 sequence: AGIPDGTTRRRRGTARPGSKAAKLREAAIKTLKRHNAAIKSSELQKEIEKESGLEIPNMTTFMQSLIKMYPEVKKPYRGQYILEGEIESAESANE
The assay is described as follows: protein binding microarray.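 Note: rank score from −0.5 (least bound) to 0.5 (best bound).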 As to conditions: Rok is a gene silencer of Bacillus subtilis; high values mean tight binding; most listed sequences are background and not binding sites; double strand, one strand shown.
In turn, ACTTCAAG showed a binding signal of -0.039 E-score.
For the sequence ACTACTCA, the binding signal turned out to be 0.265 E-score.
With GTGAATCA the figure was -0.166 E-score.
Regarding ACAGGGAC, the binding signal is -0.11 E-score.
ATGGGAAA: the binding signal was -0.0341 E-score.
As for AAAGATTC, the figure is 0.156 E-score.
With AGATCCCA the figure was -0.00972 E-score; with CCCGTAAC, 0.0565 E-score; with CGTTTTTC, -0.162 E-score.
ACATGAAG returned a binding signal of 0.0346 E-score.
As for ACTGATTC, the figure is 0.173 E-score.
On to ACATGAGA, for which the binding signal was 0.148 E-score.
As for GAAACAGA, the figure is 0.0689 E-score; as for AATATGTC, 0.135 E-score.
With CTTGACTA the figure was 0.165 E-score.
Take CCTACAGC: the binding signal was -0.0272 E-score.
GAGCCGAA: the binding signal is -0.0816 E-score.
For the sequence GATTTGCC, the binding signal is -0.0374 E-score.
In turn, CTAGTAGA had a binding signal of 0.382 E-score.
As for TAGACATA, the figure is 0.0841 E-score; as for CAGTCCTC, -0.284 E-score; as for CGATTCGC, -0.131 E-score.
In turn, TCATGCCA registered a binding signal of -0.000693 E-score.
As for AGTTACAT, the figure is 0.342 E-score.
Sequence ATACTCTC gave a binding signal of 0.0157 E-score.
Regarding ACTGGGCA, the binding signal was -0.327 E-score.
With AAGTCAGC the figure was -0.228 E-score; with AAGACTTG, 0.00361 E-score.
As to CGCGTCGA, the binding signal was -0.0553 E-score.
With ATTTACGC the figure was 0.00742 E-score; with AAAATAAC, 0.2 E-score; with CAGAACAC, -0.165 E-score.
As for GAATTTAC, the figure is 0.282 E-score; as for ATTTGCAG, 0.0703 E-score; as for ACTTCCGC, 0.0187 E-score.
With CCAGGTTA the figure was -0.0595 E-score; with TCTCCGCA, -0.181 E-score; with ACGGTTCT, 6.54e-05 E-score.
AGGGCTGC yielded a binding signal of -0.257 E-score.
As for ATCATGAC, the figure is 0.0342 E-score; as for CCAGAGAC, -0.112 E-score; as for CCGCAATC, -0.0456 E-score.
As for GGAAGGAC, the binding signal is -0.11 E-score.
The sequence AACGACGC gave a binding signal of -0.196 E-score.
The sequence GCAAGCGA returned a binding signal of -0.0261 E-score.
ACTCTTTC displayed a binding signal of -0.0799 E-score.
With TGACTGCA the figure was -0.0427 E-score.
As for ATGCTAAA, the figure is 0.144 E-score; as for ACAAGTTC, -0.0558 E-score.
As for ACCAAGTC, the figure is -0.214 E-score; as for ATATTTTG, 0.237 E-score.
ATCATAGG gave a binding signal of 0.0665 E-score.
With CAAAGACC the figure was -0.0766 E-score.
As for GCATTAGA, the figure is -0.0444 E-score; as for AAGCTTGG, -0.0293 E-score.
On to CACAGCGC, for which the binding signal is -0.276 E-score.
Regarding CGTCCCAG, the binding signal is -0.132 E-score.
With GCCGTCAA the figure was -0.135 E-score.
As for AAATTGTG, the figure is 0.108 E-score; as for GACTTCCC, -0.115 E-score.
With GCCTAGCA the figure was -0.09 E-score; with AATCCCTC, -0.105 E-score.
The sequence AGCGTTTA showed a binding signal of 0.016 E-score.
As for AGACCCCT, the binding signal is -0.337 E-score.
ATATGCAG registered a binding signal of 0.0409 E-score.
In turn, AAGTATAT had a binding signal of 0.318 E-score.
The sequence ACATTCAA returned a binding signal of 0.105 E-score.
As for ATCTACAA, the figure is 0.266 E-score.
In turn, ACAGTCAC came in with a binding signal of -0.0206 E-score.
Sequence CCGCTAGC yielded a binding signal of 0.0168 E-score.
ACCTACAG gave a binding signal of 0.0787 E-score.
Take AAAGGTCA: the binding signal is -0.146 E-score.
CCTATTTC yielded a binding signal of -0.00542 E-score.
With CCATCTTC the figure was 0.00999 E-score; with ATACCCGA, 0.166 E-score.
With AACGTTAA the figure was 0.112 E-score; with CTGGCGAA, -0.0196 E-score.
Take ATTACCGA: the binding signal amounted to 0.191 E-score.
With GATTCTGA the figure was 0.18 E-score; with GATAATTA, 0.201 E-score.
With CACCAAAG the figure was 0.0283 E-score; with GGTGATAA, 0.102 E-score.
As to ATCGGGCC, the binding signal was -0.173 E-score.
With GTTTACTA the figure was 0.121 E-score; with GGGAACCC, -0.213 E-score.
With GGTAAAGA the figure was 0.177 E-score.
As for GAAACCTA, the binding signal is 0.12 E-score.
As for CAGATGTC, the figure is 0.0905 E-score; as for CCAGTTGC, 0.015 E-score; as for GCTATAGC, 0.22 E-score.
Sequence ATAGCGTC had a binding signal of 0.15 E-score.
As for GTGTGCCA, the figure is -0.216 E-score; as for GCCTTTCC, -0.325 E-score; as for GAGTACGA, -0.0364 E-score.
As for GGGCTGTA, the binding signal is -0.0262 E-score.
Sequence ACTATAGG showed a binding signal of 0.148 E-score.
With ACCAAGCT the figure was 0.000898 E-score.
With CTTATTGA the figure was 0.0265 E-score.
With ACCGTCCC the figure was -0.132 E-score.
ATTGACTC came in with a binding signal of 0.00937 E-score.
On to TCCAGCAA, for which the binding signal was 0.183 E-score.
With GTAGGCAC the figure was -0.108 E-score; with CTTTGCTC, -0.124 E-score; with ACCATAAT, 0.153 E-score.
As for CTTGCGCA, the figure is -0.0858 E-score; as for AGGAACGC, -0.118 E-score; as for GATGGGAA, 0.104 E-score.
With ACACGCCT the figure was 0.000764 E-score; with AATTAGCA, 0.246 E-score; with ACCGAGCT, -0.0142 E-score.
As to AACGTGAT, the binding signal came to 0.0767 E-score.
GTGGAGCA registered a binding signal of 0.057 E-score.
As to AGGATCCG, the binding signal is -0.138 E-score.
As for GTCACCGA, the figure is -0.0297 E-score.
With AGATGATG the figure was -0.0485 E-score; with ACTTCCTC, -0.124 E-score.
Consider ACGGGAGG, for which the binding signal was -0.215 E-score.
AACTCGGG displayed a binding signal of 0.202 E-score.
With AGACTCCG the figure was -0.0814 E-score; with GGGTCACA, 0.107 E-score; with AATGTACC, 0.373 E-score.
CCGGTAGG gave a binding signal of 0.058 E-score.
AACCTCAG had a binding signal of 0.129 E-score.
With GTGAATAA the figure was -0.0509 E-score; with CGAGATTA, 0.0604 E-score; with CTTGCGAA, -0.211 E-score.
Regarding ATAAGTTG, the binding signal worked out at 0.181 E-score.
As for ACTGGTCC, the figure is -0.202 E-score.
With ATGCGGCG the figure was -0.186 E-score; with GACGTTCA, -0.173 E-score.
On to CCGCGGCC, for which the binding signal was -0.374 E-score.
As for TCCCCCGA, the figure is -0.265 E-score.
With ATCAATCA the figure was 0.143 E-score.
As to CAAGAAGC, the binding signal is -0.193 E-score.
With GCGCTCGA, the binding signal is -0.0923 E-score.
As for CTCGGGCC, the binding signal was -0.213 E-score.
As for GGGAGAAA, the figure is -0.0512 E-score.
CACCATGC came in with a binding signal of -0.0257 E-score.
With AGGTATAT the figure was 0.258 E-score.
Sequence ATCAGAAC gave a binding signal of 0.0576 E-score.
GAAGCAAC showed a binding signal of -0.0116 E-score.
AGATATCG gave a binding signal of 0.24 E-score.
For AGTCAGGA, the binding signal is -0.181 E-score.
Take TAGGGCCA: the binding signal was -0.0385 E-score.
As for GACCAGCA, the figure is -0.254 E-score.
As for AAAATCTA, the figure is 0.339 E-score; as for ATGGAACG, -0.179 E-score.
With CATCACCC the figure was -0.267 E-score; with AGCCCATG, -0.109 E-score.
In turn, AGATTAGA registered a binding signal of 0.233 E-score.
With GCTCGAGC the figure was -0.176 E-score; with CTCATACA, 0.109 E-score; with AATGCAAA, 0.133 E-score.
Take ACAGCGCT: the binding signal was -0.144 E-score.
As to ATCGCTCC, the binding signal is -0.234 E-score.
Sequence ACTGCAAC yielded a binding signal of 0.0936 E-score.
In the case of ACTCGGAT, the binding signal was 0.13 E-score.
With ATCAAGAG the figure was 0.121 E-score; with CGTCTAAG, -0.0871 E-score; with AATGATCC, 0.0426 E-score.
For the sequence CTCATAGC, the binding signal was -0.194 E-score.
Sequence GAATTGTA came in with a binding signal of 0.107 E-score.
With ACTTCCAA the figure was 0.174 E-score.
Turning to GCACTAAA, the binding signal was 0.172 E-score.
GTGGCTGA yielded a binding signal of -0.15 E-score.
Sequence AAATCACT displayed a binding signal of -0.0376 E-score.
As for GGCAACCC, the figure is -0.299 E-score.
As for CCTAGCCA, the figure is -0.219 E-score; as for GATGTAGA, 0.23 E-score; as for ATACTGTG, -0.082 E-score.
CAATGTGC gave a binding signal of 0.0562 E-score.
For AAGCGTCA, the binding signal was -0.165 E-score.
